Experiments:
[1] = target: T1, rat SERT (rSERT; serotonin transporter) (Rattus norvegicus, UniProt P31652); test: […]β-CIT filtration binding, HeLa membranes
[2] = target: T1, rat SERT (rSERT; serotonin transporter); test: biochemical; design: species or system HeLa
[3] = target: T1, rat SERT (rSERT; serotonin transporter); test: biochemical; design: species or system HeLa; remark: listed apart in the source

UniProt P31652, sequence (P31652 whole entry): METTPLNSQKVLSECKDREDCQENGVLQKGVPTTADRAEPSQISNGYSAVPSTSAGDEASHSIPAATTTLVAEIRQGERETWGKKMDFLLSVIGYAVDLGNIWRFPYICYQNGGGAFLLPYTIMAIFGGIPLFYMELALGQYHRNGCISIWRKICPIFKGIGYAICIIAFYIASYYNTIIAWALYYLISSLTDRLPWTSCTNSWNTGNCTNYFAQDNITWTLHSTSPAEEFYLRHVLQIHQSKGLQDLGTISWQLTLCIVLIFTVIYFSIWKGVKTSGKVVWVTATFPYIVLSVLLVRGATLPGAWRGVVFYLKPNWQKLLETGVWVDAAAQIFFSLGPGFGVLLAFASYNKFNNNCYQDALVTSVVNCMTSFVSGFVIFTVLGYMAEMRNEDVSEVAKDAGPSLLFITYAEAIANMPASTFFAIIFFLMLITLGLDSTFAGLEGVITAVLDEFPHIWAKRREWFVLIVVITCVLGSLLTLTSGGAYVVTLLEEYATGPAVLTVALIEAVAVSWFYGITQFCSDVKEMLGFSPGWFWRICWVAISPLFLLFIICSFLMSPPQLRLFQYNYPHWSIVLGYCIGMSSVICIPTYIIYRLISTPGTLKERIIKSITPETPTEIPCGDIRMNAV

SMILES	Kd [1] [nM]	Kd [2] [nM]	Kd [3] [nM]
COC(=O)[C@H]1[C@@H](c2ccc(I)cc2)C[C@@H]2CC[C@H]1N2C [β-CIT, (–)-2β-carbomethoxy-3β-(4-iodophenyl) tropane]	0.6 ± 0.2	–	–
COC(=O)[C@H]1C(c2ccc(I)cc2)C[C@@H]2CC[C@H]1N2C (stereo partly drawn) [β-CIT]	–	2.6 ± 0.4	2.5 ± 0.8

Source: article PMC3012355 (The Journal of neuroscience : the official journal of the …, 2009)
